Experimental data taken from patent publication US11542311B2, “Fusion protein, preparation method therefor and application thereof in preparing ophthalmic disease treatment, anti-inflammation and anti-tumor medicament” (JIANGSU RONGTAI BIOTECH CO., LTD., priority 2017, dated 2023).

B1: Protein I: Fc fusion protein Fc-IL4DM-HM3: IgG1-Fc, IL-4 and HM-3 joined by flexible (F) linker; SEQ ID NO: 1 (protein)
chain: [gap - human IgG1 Fc]GGGGSGGGGSGGGGSHKCDITLQEIIKTLNSLTEQKTLCTELTVTDIFAASKNTTEKETFCRAATVLRQFYSHHEKDTRCLGATAQQFHRHKQLIRFLKRLDRNLWGLAGLNSCPVKEANQSTLENFLERLKTIMDEKDSKCSSGGGGSGGGGSGGGGSIVRRADRAAVPGGGGRGD
B2: Protein II: Fc fusion protein Fc-IL4DM-HM3: IgG1-Fc, IL-4 and HM-3 joined by rigid (R) linker; SEQ ID NO: 2 (protein)
chain: [gap - human IgG1 Fc]AEAAAKEAAAKEAAAKEAAAKAHKCDITLQEIIKTLNSLTEQKTLCTELTVTDIFAASKNTTEKETFCRAATVLRQFYSHHEKDTRCLGATAQQFHRHKQLIRFLKRLDRNLWGLAGLNSCPVKEANQSTLENFLERLKTIMDEKDSKCSSAEAAAKEAAAKEAAAKEAAAKAIVRRADRAAVPGGGGRGD

Experiments:
[1] = test system: Human umbilical vein endothelial cells (HUVECs); assay: Three-dimensional transwell assay, migration of HUVEC; assay type: cell-based; conditions: 24 h
Method: (1) 10 mg/mL Matrigel (a basement membrane matrix secreted by Engelbreth-Holm-Swarm (EHS) mouse sarcoma cells) diluted with a DMEM medium (Dulbecco's Modified Eagle Medium) at a ratio of 1:4, coated on a transwell chamber membrane, and air-dried at room temperature;
(2) HUVEC cells cultured to logarithmic phase were digested with 0.2% EDTA, collected, washed twice with PBS, followed by resuspended in an endothelial cell culture liquid containing 0.1% BSA, and counted under a microscope, and the cell concentration was adjusted to 1×10^5 cells/mL;
(3) Test solutions for each group were formulated and diluted to 100 μL with a cell culture liquid containing 0.1% BSA;
(4) The cells were inoculated into a transwell chamber, 100 μL per well, and test solutions for each group were added to the chamber. To a 24-well plate, 0.6 mL of endothelial cell culture liquid containing 5% fetal bovine serum and 1×ECGS was added to stimulate cell migration, and incubated at 5% CO2 at 37° C. for 24 h;
(5) The culture liquid in the well was discarded. The cells were fixed with 90% alcohol at room temperature for 30 min, stained with 0.1% crystal violet for 10 min at room temperature, and rinsed with water. Un-migrated cells in the upper layer were gently wiped off by a cotton swab. The observation was carried out under a microscope and four fields of view were selected for taking photos and counting. The migration inhibition (MI) was calculated according to the formula: […]
where Ntest is the migration cell number in the test group, and Ncontrol is the migration cell number in the blank control group.
The test was repeated 3 times independently. The results obtained from the test were calculated as mean±SD, and statistical t-test was performed. P<0.05 was considered as a significant difference, and P<0.01 was considered as extremely significant difference.

lung cancer cell A549 = assay: MTT assay, proliferation of lung cancer cell A549; assay type: cell-based; conditions: 48 h
Method: The MTT assay was used to detect the inhibitory effect of the integrin blocker fusion protein obtained in Example 1 on the proliferation of various tumor cells, including melanoma cell B16F10, gastric cancer cell MGC-803, lung cancer cell A549, liver cancer cell Hep-G2, breast cancer cell MDA-MB-231, colon cancer cell HCT-116, human glioma U87, and cervical cancer cell Hela.
The tumor cells were cultured in a 5% CO2 incubator at 37° C. to a density of 90% or more, and collected by trypsinization. The cells were resuspended in the culture liquid and counted under a microscope. The cell concentration was adjusted to 3.0×10^4 cells/mL. The cell suspension was inoculated into a 96-well plate, 100 μL per well, and cultured overnight in a 5% CO2 incubator at 37° C. The fusion proteins I, II, and the positive drug Taxol were diluted with the culture liquid to respective predetermined concentrations. After the cells were fully adhered, each dilution was added to a 96-well plate, 100 μL per well, respectively. The integrin blocker fusion proteins I and II were added as an administration group, Taxol was used as a positive control group, and the culture liquid without any drug was used as a blank control group, and incubated in an 5% CO2 incubator at 37° C. for 48 hours. 20 μL of 5 mg/mL MTT was added to each well of a 96-well plate, and incubation was continued for 4 hours. The medium was aspirated and 100 μL of DMSO per well were added to dissolve. The absorbance was measured at 570 nm with a microplate reader with a reference wavelength of 630 nm, and the proliferation inhibition (PI) was calculated. The formula is as follows: […]
where Ntest is the OD value of the test group and Ncontrol is the OD value of the blank control group.
The test was repeated 5 times independently. The results obtained from the test were calculated as mean±SD, and statistical t-test was performed. P<0.05 was considered as significant difference, and P<0.01 was considered as an extremely significant difference.

[2] = test system: peritoneal capillary permeability in mice; assay: Peritoneal capillary permeability in mice (Evans blue, HAc); assay type: in vivo, Kunming mice; conditions: for PI (%): exudation
Method: The drug was administered once by injection every 5 days, and the blank model group was given an equal volume of physiological saline for 5 days and fed normally. On the 5th day after the administration, a 5 g/L of Evans blue physiological saline solution was injected into the tail vein at […], followed by intraperitoneal injection ([…]) HAc solution (6 mL/L) to induce inflammation. After 20 min, the mice were sacrificed by cervical dislocation. 5 mL of physiological saline was intraperitoneally injected, the abdomen was gently rubbed for 2 min, the abdominal cavity was cut, a peritoneal washing solution was collected and centrifuged at 4000 rpm for 10 min, 1 mL of supernatant was taken, and 3 mL of physiological saline was added to obtain a 4 mL of dilution. The absorbance OD value of the dilution was measured by an ultraviolet spectrophotometer at a wavelength of 590 nm, and the amount of pigment exudation was expressed by the OD590 nm value, and peritoneal capillary permeability in mice was examined.

Molecule | MI (%) ([1]; 0.25 μg/mL) | MI (%) ([1]; 0.5 μg/mL) | MI (%) ([1]; 1 μg/mL) | MI (%) ([1]; 2 μg/mL) | MI (%) ([1]; 4 μg/mL) | MI (%) ([1]; 8 μg/mL) | A570 nm/A630 nm (lung cancer cell A549; 1 μg/mL) | PI (%) (lung cancer cell A549; 1 μg/mL) | A570 nm/A630 nm (lung cancer cell A549; 2 μg/mL) | PI (%) (lung cancer cell A549; 2 μg/mL) | A570 nm/A630 nm (lung cancer cell A549; 4 μg/mL) | PI (%) (lung cancer cell A549; 4 μg/mL) | A570 nm/A630 nm (lung cancer cell A549; 8 μg/mL) | PI (%) (lung cancer cell A549; 8 μg/mL) | A570 nm/A630 nm (lung cancer cell A549; 16 μg/mL) | PI (%) (lung cancer cell A549; 16 μg/mL) | A570 nm/A630 nm (lung cancer cell A549; 32 μg/mL) | PI (%) (lung cancer cell A549; 32 μg/mL) | A570 nm/A630 nm (lung cancer cell A549; 64 μg/mL) | PI (%) (lung cancer cell A549; 64 μg/mL) | also measured
B1 | 18.17% | 30.28% | 62.58% | 70.68% | 68.47% | 44.44% | 0.6466 ± 0.0503 | 4.14% | 0.5947 ± 0.0173 | 11.83% | 0.5603 ± 0.0416 | 16.93% | 0.5225 ± 0.0293 | 22.54% | 0.4866 ± 0.0299 | 27.86% | 0.4395 ± 0.0124 | 34.84% | 0.3837 ± 0.0396 | 43.11% | Migration cell number ([1]; 0.25 μg/mL): 2040.0 ± 180.21; Migration cell number ([1]; 0.5 μg/mL): 1738 ± 366.83; Migration cell number ([1]; 1 μg/mL): 933.0 ± 150.58; Migration cell number ([1]; 2 μg/mL): 731.0 ± 236.53; Migration cell number ([1]; 4 μg/mL): 786.0 ± 45.50; Migration cell number ([1]; 8 μg/mL): 1385.0 ± 176.11; A570 nm/A630 nm (lung cancer cell A549; 128 μg/mL): 0.3263 ± 0.0218; PI (%) (lung cancer cell A549; 128 μg/mL): 51.62%; A570 nm/A630 nm (lung cancer cell A549; 256 μg/mL): 0.2609 ± 0.0265; PI (%) (lung cancer cell A549; 256 μg/mL): 61.32%; Exudation rate (OD590) ([2]; 8 mg/kg by injection): 0.59 ± 0.02; Exudation rate (OD590) ([2]; 32 mg/kg by injection): 0.46 ± 0.02; Exudation rate (OD590) ([2]; 128 mg/kg by injection): 0.35 ± 0.05; PI (%) ([2]; 8 mg/kg): 10.61%; PI (%) ([2]; 32 mg/kg): 30.30%; PI (%) ([2]; 128 mg/kg): 46.97%
B2 | 14.88% | 51.26% | 72.56% | 76.82% | 64.94% | 29.48% | 0.6215 ± 0.0196 | 7.86% | 0.6051 ± 0.0125 | 10.29% | 0.5833 ± 0.0339 | 13.52% | 0.5516 ± 0.0313 | 18.22% | 0.5067 ± 0.0241 | 24.88% | 0.4698 ± 0.0178 | 30.35% | 0.4259 ± 0.0336 | 36.86% | A570 nm/A630 nm (lung cancer cell A549; 128 μg/mL): 0.3509 ± 0.0116; PI (%) (lung cancer cell A549; 128 μg/mL): 47.98%; A570 nm/A630 nm (lung cancer cell A549; 256 μg/mL): 0.2775 ± 0.0267; PI (%) (lung cancer cell A549; 256 μg/mL): 58.86%; Exudation rate (OD590) ([2]; 8 mg/kg by injection): 0.55 ± 0.07; Exudation rate (OD590) ([2]; 32 mg/kg by injection): 0.42 ± 0.09; Exudation rate (OD590) ([2]; 128 mg/kg by injection): 0.31 ± 0.06; PI (%) ([2]; 8 mg/kg): 16.67%; PI (%) ([2]; 32 mg/kg): 36.36%; PI (%) ([2]; 128 mg/kg): 53.03%
